Reference: the supplement of paper PMC8728848
The other results are listed elsewhere or left out.

Tests used:
Assay in all cases: glycan array binding signal (z-score within array); higher = stronger binding
Details in all cases: glycan notation: IUPAC condensed, linker removed
GlcNAc(b1-3)Gal(b1-4)Glc = molecular target: GlcNAc(b1-3)Gal(b1-4)Glc
How it was run: (§1)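 Glycan array data came from 3228 arrays in the Consortium for Functional Glycomics database, and only arrays with an available protein sequence were kept. Glycan names were put into IUPAC-condensed notation, and columns mapping to the same glycan were averaged. The binding signal is a within-array Z-score, averaged across arrays of one protein sequence run at different concentrations or buffers and across linkers. A negative Z-score can be read as non-binding.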

[1] = molecular target: GlcNAc(b1-3)Gal(b1-4)GlcNAc
How it was run: as §1

[2] = molecular target: GlcNAc(b1-3)Gal(b1-4)GlcNAc(b1-2)Man(a1-3)[GlcNAc(b1-3)Gal(b1-4)GlcNAc(b1-2)Man(a1-6)]Man(b1-4)GlcNAc(b1-4)GlcNAc
How it was run: as §1

[3] = molecular target: GlcNAc(b1-3)Gal(b1-4)GlcNAc(b1-2)Man(a1-3)[GlcNAc(b1-3)Gal(b1-4)GlcNAc(b1-2)Man(a1-6)]Man(b1-4)GlcNAc(b1-4)[Fuc(a1-6)]GlcNAc
How it was run: as §1

[4] = molecular target: GlcNAc(b1-3)Gal(b1-4)GlcNAc(b1-2)[GlcNAc(b1-3)Gal(b1-4)GlcNAc(b1-6)]Man(a1-6)[GlcNAc(b1-3)Gal(b1-4)GlcNAc(b1-2)Man(a1-3)]Man(b1-4)GlcNAc(b1-4)GlcNAc
How it was run: as §1

[5] = molecular target: GlcNAc(b1-3)Gal(b1-4)GlcNAc(b1-3)Gal(b1-4)GlcNAc
How it was run: as §1

[6] = molecular target: GlcNAc(b1-3)Gal(b1-4)GlcNAc(b1-3)Gal(b1-4)GlcNAc(b1-2)Man(a1-3)[GlcNAc(b1-3)Gal(b1-4)GlcNAc(b1-3)Gal(b1-4)GlcNAc(b1-2)Man(a1-6)]Man(b1-4)GlcNAc(b1-4)GlcNAc
How it was run: as §1

[7] = molecular target: GlcNAc(b1-3)Gal(b1-4)GlcNAc(b1-3)Gal(b1-4)GlcNAc(b1-2)Man(a1-3)[GlcNAc(b1-3)Gal(b1-4)GlcNAc(b1-3)Gal(b1-4)GlcNAc(b1-2)Man(a1-6)]Man(b1-4)GlcNAc(b1-4)[Fuc(a1-6)]GlcNAc
How it was run: as §1

[8] = molecular target: GlcNAc(b1-3)Gal(b1-4)GlcNAc(b1-3)Gal(b1-4)GlcNAc(b1-2)[GlcNAc(b1-3)Gal(b1-4)GlcNAc(b1-3)Gal(b1-4)GlcNAc(b1-6)]Man(a1-6)[GlcNAc(b1-3)Gal(b1-4)GlcNAc(b1-3)Gal(b1-4)GlcNAc(b1-2)Man(a1-3)]Man(b1-4)GlcNAc(b1-4)[Fuc(a1-6)]GlcNAc
How it was run: as §1

[9] = molecular target: GlcNAc(b1-3)Gal(b1-4)GlcNAc(b1-3)Gal(b1-4)GlcNAc(b1-3)Gal(b1-4)GlcNAc(b1-2)Man(a1-3)[GlcNAc(b1-3)Gal(b1-4)GlcNAc(b1-3)Gal(b1-4)GlcNAc(b1-3)Gal(b1-4)GlcNAc(b1-2)Man(a1-6)]Man(b1-4)GlcNAc(b1-4)GlcNAc
How it was run: as §1

[10] = molecular target: GlcNAc(b1-3)Gal(b1-4)GlcNAc(b1-3)Gal(b1-4)GlcNAc(b1-3)Gal(b1-4)GlcNAc(b1-2)Man(a1-3)[GlcNAc(b1-3)Gal(b1-4)GlcNAc(b1-3)Gal(b1-4)GlcNAc(b1-3)Gal(b1-4)GlcNAc(b1-2)Man(a1-6)]Man(b1-4)GlcNAc(b1-4)[Fuc(a1-6)]GlcNAc
How it was run: as §1

[11] = molecular target: GlcNAc(b1-3)Gal(b1-4)GlcNAc(b1-3)Gal(b1-4)GlcNAc(b1-3)Gal(b1-4)GlcNAc(b1-2)[GlcNAc(b1-3)Gal(b1-4)GlcNAc(b1-3)Gal(b1-4)GlcNAc(b1-3)Gal(b1-4)GlcNAc(b1-6)]Man(a1-6)[GlcNAc(b1-3)Gal(b1-4)GlcNAc(b1-3)Gal(b1-4)GlcNAc(b1-3)Gal(b1-4)GlcNAc(b1-2)Man(a1-3)]Man(b1-4)GlcNAc(b1-4)[Fuc(a1-6)]GlcNAc
How it was run: as §1

[12] = molecular target: GlcNAc(b1-3)Gal(b1-4)GlcNAc(b1-3)Gal(b1-4)GlcNAc(b1-3)Gal(b1-4)GlcNAc(b1-3)Gal(b1-4)GlcNAc(b1-2)Man(a1-3)[GlcNAc(b1-3)Gal(b1-4)GlcNAc(b1-3)Gal(b1-4)GlcNAc(b1-3)Gal(b1-4)GlcNAc(b1-3)Gal(b1-4)GlcNAc(b1-2)Man(a1-6)]Man(b1-4)GlcNAc(b1-4)GlcNAc
How it was run: as §1

[13] = molecular target: GlcNAc(b1-3)Gal(b1-4)GlcNAc(b1-3)Gal(b1-4)GlcNAc(b1-3)Gal(b1-4)GlcNAc(b1-3)Gal(b1-4)GlcNAc(b1-2)Man(a1-3)[GlcNAc(b1-3)Gal(b1-4)GlcNAc(b1-3)Gal(b1-4)GlcNAc(b1-3)Gal(b1-4)GlcNAc(b1-3)Gal(b1-4)GlcNAc(b1-2)Man(a1-6)]Man(b1-4)GlcNAc(b1-4)[Fuc(a1-6)]GlcNAc
How it was run: as §1

[14] = molecular target: GlcNAc(b1-3)Gal(b1-4)GlcNAc(b1-3)Gal(b1-4)GlcNAc(b1-3)Gal(b1-4)GlcNAc(b1-3)Gal(b1-4)GlcNAc(b1-2)[GlcNAc(b1-3)Gal(b1-4)GlcNAc(b1-3)Gal(b1-4)GlcNAc(b1-3)Gal(b1-4)GlcNAc(b1-3)Gal(b1-4)GlcNAc(b1-6)]Man(a1-6)[GlcNAc(b1-3)Gal(b1-4)GlcNAc(b1-3)Gal(b1-4)GlcNAc(b1-3)Gal(b1-4)GlcNAc(b1-3)Gal(b1-4)GlcNAc(b1-2)Man(a1-3)]Man(b1-4)GlcNAc(b1-4)[Fuc(a1-6)]GlcNAc
How it was run: as §1

[15] = molecular target: GlcNAc(b1-3)Gal(b1-4)GlcNAc(b1-3)Gal(b1-4)GlcNAc(b1-3)GalNAc
How it was run: as §1

[16] = molecular target: GlcNAc(b1-3)Gal(b1-4)GlcNAc(b1-3)GalNAc
How it was run: as §1

[17] = molecular target: GlcNAc(b1-3)Gal(b1-4)GlcNAc(b1-3)[GlcNAc(b1-3)Gal(b1-4)GlcNAc(b1-3)]GalNAc
How it was run: as §1

[18] = molecular target: GlcNAc(b1-3)Gal(b1-4)GlcNAc(b1-6)[Gal(b1-3)]GalNAc
How it was run: as §1

[19] = molecular target: GlcNAc(b1-3)Gal(b1-4)GlcNAc(b1-6)[GlcNAc(b1-3)Gal(b1-3)]GalNAc
How it was run: as §1

[20] = molecular target: GlcNAc(b1-3)Gal(b1-4)GlcNAc(b1-6)[GlcNAc(b1-3)]Gal(b1-4)GlcNAc
How it was run: as §1

GlcNAc(b1-3)GalNAc = molecular target: GlcNAc(b1-3)GalNAc
How it was run: as §1

GlcNAc(b1-3)Man = molecular target: GlcNAc(b1-3)Man
How it was run: as §1

[21] = molecular target: GlcNAc(b1-3)[GlcNAc(b1-4)][GlcNAc(b1-6)]GlcNAc
How it was run: as §1

[22] = molecular target: GlcNAc(b1-3)[GlcNAc(b1-6)]Gal(b1-4)GlcNAc
How it was run: as §1

[23] = molecular target: GlcNAc(b1-3)[GlcNAc(b1-6)]GalNAc
How it was run: as §1

[24] = molecular target: GlcNAc(b1-4)Gal(b1-4)GlcNAc
How it was run: as §1

GlcNAc(b1-4)GlcNAc = molecular target: GlcNAc(b1-4)GlcNAc
How it was run: as §1

[25] = molecular target: GlcNAc(b1-4)GlcNAc(b1-4)GlcNAc
How it was run: as §1

[26] = molecular target: GlcNAc(b1-4)GlcNAc(b1-4)GlcNAc(b1-4)GlcNAc(b1-4)GlcNAc
How it was run: as §1

[27] = molecular target: GlcNAc(b1-4)GlcNAc(b1-4)GlcNAc(b1-4)GlcNAc(b1-4)GlcNAc(b1-4)GlcNAc
How it was run: as §1

[28] = molecular target: GlcNAc(b1-4)[GlcNAc(b1-6)]GalNAc
How it was run: as §1

[29] = molecular target: GlcNAc(b1-6)Gal(b1-4)GlcNAc
How it was run: as §1

GlcNAc(b1-6)GalNAc = molecular target: GlcNAc(b1-6)GalNAc
How it was run: as §1

[30] = molecular target: GlcNAc6S(b1-3)Gal(b1-4)GlcNAc
How it was run: as §1

Kdn(a2-3)Gal(b1-3)GalNAc = molecular target: Kdn(a2-3)Gal(b1-3)GalNAc
How it was run: as §1

Kdn(a2-3)Gal(b1-3)GlcNAc = molecular target: Kdn(a2-3)Gal(b1-3)GlcNAc
How it was run: as §1

B1: PX15618B-bfa-464-25-464 (Bacteroides fragilis) (protein)
chain: DQEPPLYVNENDIFTSPTRIEATLNGLYAAIKNTGTKSLMGGKSYLVFDNRGDDVINISNNLVTLFNTYNMNVGITDAENADTWTYAYLAINKVNTFLQSLEGAREVAGENYDRYVQEAKFVRALAYYYLNNLYPTPYSVNPDAKSVPLRLTAEAGTENNNMPRSTVKQIYEHILSDLENISALDTEVNTYTGVTHATQAAANMLKMRVYMAMNEWDKAITAGELVTGYSLPEDVTLIYKAPYFSQESIFSLPMADTNIPNTQQSLAEYYYDGKIMLIDTKSGIMSKPDYSLATDKRIIAFKGEKDLLMKFTDAKTKLQWVPIFRYAETLLDLAECYANKAGGEATAKSLLKQVRGRSVDAATDPLNIDNLSGDALKEAIYNEKRLEFIGEGIRGIDIMRRGEHFIKVGENETINVGPSDEKYTWPIPQVELLLNKDINK
- glycan array binding signal (z-score) (GlcNAc(b1-3)Gal(b1-4)Glc): -0.08
- glycan array binding signal (z-score) [1]: -0.38
- glycan array binding signal (z-score) [2]: -0.165
- glycan array binding signal (z-score) [3]: -0.453
- glycan array binding signal (z-score) [4]: 0.459
- glycan array binding signal (z-score) [5]: 0.072
- glycan array binding signal (z-score) [6]: 0.522
- glycan array binding signal (z-score) [7]: 0.457
- glycan array binding signal (z-score) [8]: -0.207
- glycan array binding signal (z-score) [9]: 0.102
- glycan array binding signal (z-score) [10]: 0.647
- glycan array binding signal (z-score) [11]: 0.888
- glycan array binding signal (z-score) [12]: 0.012
- glycan array binding signal (z-score) [13]: 0.748
- glycan array binding signal (z-score) [14]: -0.353
- glycan array binding signal (z-score) [15]: -0.357
- glycan array binding signal (z-score) [16]: 0.586
- glycan array binding signal (z-score) [17]: 0.807
- glycan array binding signal (z-score) [18]: -0.226
- glycan array binding signal (z-score) [19]: -0.241
- glycan array binding signal (z-score) [20]: -0.679
- glycan array binding signal (z-score) (GlcNAc(b1-3)GalNAc): -0.195
- glycan array binding signal (z-score) (GlcNAc(b1-3)Man): -0.321
- glycan array binding signal (z-score) [21]: -0.765
- glycan array binding signal (z-score) [22]: -0.26
- glycan array binding signal (z-score) [23]: -0.088
- glycan array binding signal (z-score) [24]: 1.25
- glycan array binding signal (z-score) (GlcNAc(b1-4)GlcNAc): -0.122
- glycan array binding signal (z-score) [25]: -0.026
- glycan array binding signal (z-score) [26]: -0.106
- glycan array binding signal (z-score) [27]: -0.076
- glycan array binding signal (z-score) [28]: 0.829
- glycan array binding signal (z-score) [29]: -0.393
- glycan array binding signal (z-score) (GlcNAc(b1-6)GalNAc): 0.228
- glycan array binding signal (z-score) [30]: 0.529
- glycan array binding signal (z-score) (Kdn(a2-3)Gal(b1-3)GalNAc): -0.399
- glycan array binding signal (z-score) (Kdn(a2-3)Gal(b1-3)GlcNAc): -0.354
